According to PubChem BioAssay AID2451 (National Center for Advancing Translational Sciences (NCATS), 2010):
Screen size: about 290,000 compounds; about 2,100 (0.72%) were called active. The shares of active, inactive and inconclusive entries below differ from those in the screen. Calls come from the whole dose curve; as a rule, active = well fitted inhibition curve with a large enough effect; inconclusive = small, poorly fitted or top-dose-only effect, or effect the other way; inactive = flat fitted curve, though single readings scatter. Where the call is inconclusive, the potency comes from a doubtful curve fit.

Molecular target: Fructose-bisphosphate aldolase (Giardia intestinalis (strain ATCC 50803 / WB clone C6)) (UniProt A8B2U2)
Test: qHTS Assay for Inhibitors of Fructose-1,6-bisphosphate Aldolase from Giardia Lamblia; note: nearly all actives have a fitted effect of over 55% in size
Details: purified Giardia FBPA; series mostly up to 59.6 µM
Outline: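 Giardia FBPA (40 nM reagent) was preincubated 10 min at RT with compound (up to 57.5 uM final), then substrate plus GAPDH/TPI/NAD/arsenate coupling system with diaphorase/resazurin was added; resorufin fluorescence (525/598 nm) was read after 20 min.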
Potency is the fitted concentration of half-maximal effect; tags give direction and shape of the fitted curve.

UniProt A8B2U2, sequence (A8B2U2 whole entry, looked up): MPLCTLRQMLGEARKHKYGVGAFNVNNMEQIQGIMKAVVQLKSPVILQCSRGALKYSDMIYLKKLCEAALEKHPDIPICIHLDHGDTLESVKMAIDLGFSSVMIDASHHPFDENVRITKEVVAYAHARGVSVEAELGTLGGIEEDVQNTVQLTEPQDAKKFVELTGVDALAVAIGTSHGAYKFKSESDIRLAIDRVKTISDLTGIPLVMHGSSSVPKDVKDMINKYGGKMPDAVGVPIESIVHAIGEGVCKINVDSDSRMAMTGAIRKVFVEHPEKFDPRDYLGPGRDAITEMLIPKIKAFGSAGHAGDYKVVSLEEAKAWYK

Compound | Potency
O=C(Nc1ccc2c(c1)CCC2)Nc1ccccc1Cl | inactive
CCOC(=O)c1c(-c2ccccc2)csc1NC(=O)CCN1CCOCC1 | inconclusive: 22.3 µM [inhibitor, single point]
CCN1CCN(C(=S)c2ccc(-c3ccccc3)cc2)CC1 | inconclusive: 28.1 µM [inhibitor, single point]
Cc1ccc(/C=N/n2c(-c3ccccn3)n[nH]c2=S)o1 | active: 11.2 µM
COc1ccc(Br)cc1-c1noc(-c2ccccc2F)n1 | inactive
CC1(OC(=O)C2CCCC2)C(=O)C=C2C=C(c3ccsc3)OC=C2C1=O (stereo unspecified) | inconclusive: 15.8 µM [inhibitor, single point]
CC(C)Cc1ccc(/C=C/C(=O)N2CCOCC2)cc1 | inactive
CCC(/C=C1\Sc2ccc(OC)cc2N1CC)=C\c1sc2ccc(OC)cc2[n+]1CCCS(=O)(=O)[O-] | inactive
COc1ccc(-c2nn(CCC(=O)O)cc2/C=N/NC(N)=S)cc1 | active: 15.8 µM
COc1cc([N+](=O)[O-])cc([N+](=O)[O-])c1NC(=O)N1CCOCC1 | inconclusive: 15.8 µM [inhibitor, partial curve]
Cc1cccc(C(C)C)c1-n1nnnc1-c1ccccc1 | inconclusive: 15.8 µM [inhibitor, single point]
CC1=Nc2cc(C(=O)O)ccc2Sc2c(C)ccc(C)c21 | inconclusive: 15.8 µM [activator, single point]
Cc1nc2ccc(NC(=S)N3CCC(C)CC3)cc2nc1C | active: 15.8 µM
c1ccc(-c2nn[nH]n2)nc1 | active: 7.92 µM
COc1cc(C2Nc3ccc4ncccc4c3C3=C2C(=O)CCC3)cc(OC)c1O (stereo unspecified) | inconclusive: 7.92 µM [inhibitor, partial curve]
CCOC(=O)c1cc(-c2ccc(/C=C3/C(=O)NC(=O)C(C#N)=C3C)o2)ccc1Cl | inconclusive: 15.8 µM [inhibitor, partial curve]
O=C(Cc1ccccc1)Nc1ccccc1C(=O)N1CCN(c2ccccc2)CC1 | inconclusive: 25.1 µM [inhibitor, single point]
CC(N1CCOC1=O)S(=O)(=O)c1ccccc1 (stereo unspecified) | inconclusive: 15.8 µM [inhibitor, single point]
CC1(C)Cc2c(c(N3CCOCC3)nc3sc(-c4ccc(C(=O)O)o4)c(N)c23)CO1 | inconclusive: 8.89 µM [inhibitor, partial curve]
Cc1nn2c(NCCCN(C)C)c3c(nc2c1-c1ccccc1)CCC3 | inactive
C(=N\Nc1nn[nH]n1)/c1ccccc1 | inconclusive: 4.46 µM [inhibitor, full curve]
